Consider 34 molecules from PubChem BioAssay (NCI).

For the assay, the system named is NCI-H322M lung. As to the kind of experiment: inhibition of tumour cell growth, NCI panel, 48 h.

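Cultured in 96-well plates, cells were exposed to test compound for 48 hours across five concentrations. GI50 = concentration required for 50% inhibition of growth. Definition used: TGI = concentration required for complete inhibition of growth.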

For `C=C1C(=O)O[C@H]2[C@H]1CC/C(COC(=O)NCc1ccc(OC)cc1)=C\CC[C@@]1(C)O[C@@H]21`, the GI50 was 10.7 µM and the TGI was found to be 22.7 µM.
Regarding `Cc1c(OCc2ccccc2)c(=O)ccn1CCc1c[nH]c2ccccc12`, the TGI is over 100 µM.
Still for that read-out and setting: the same measure for `O=Nn1c2ccccc2c2cc([N+](=O)[O-])ccc21`: 41.6 µM; for `CN(C)c1nc(=NCc2ccco2)ss1`: over 92.1 µM.
Same read-out and setting: the same measure for `CN1N=C(c2ccncc2)OC1c1cccc(C(F)(F)F)c1` (stereo not drawn): over 100 µM; for `CC(C)=CCOc1cc(NC(=S)c2ccsc2C)ccc1Cl`: over 100 µM.
The same measure, in the same setting: the same measure for `CCCn1cnc2c(SCC(=O)O)nc(N)nc21`: over 100 µM.
The molecule `CCCC1C(=O)Nc2cccc3ncn(c23)C1=O` (stereo not drawn) registered a TGI of over 100 µM.
Take `CC(C)c1nc(N(C)S(C)(=O)=O)nc(-c2ccc(F)cc2)c1/C=C/[C@@H](O)C[C@@H](O)CC(=O)O`: the GI50 is over 86.3 µM and the TGI is over 100 µM.
For the molecule `O=C1CC(C(OCc2ccccc2)C(OCc2ccccc2)C(COCc2ccccc2)OCc2ccccc2)CC(=O)N1` (stereo not drawn), the TGI is over 100 µM.
Same read-out and setting: the same measure for `CC(C)(O)/C=C/C(=O)[C@](C)(O)[C@H]1[C@H](O)C[C@@]2(C)[C@@H]3CC=C4[C@@H](C[C@H](O)C(=O)C4(C)C)[C@]3(C)C(=O)C[C@]12C`: 26.6 µM; for `O=C(N/C(=C\c1ccc(Br)cc1)c1nc2ccccc2[nH]1)c1ccccc1`: 49.2 µM; for `Cc1ccc(S(=O)(=O)[C@@H](Cl)[C@H]2N=C(Cl)NN=C2c2ccccc2)cc1`: over 100 µM.
Molecule `CCOC(=O)CCC1(C(=O)OCC)CCCC1=O` (stereo not drawn) gave a TGI of over 100 µM.
Same read-out and setting: the same measure for `CC1(C)C(CCO)CC1n1ccc(=O)[nH]c1=O` (stereo not drawn): over 100 µM; for `CN(C)CCNC(=O)c1cccc2cc3cc(O)ccc3nc12`: 4.98 µM.
Same read-out and setting: the same measure for `CN(C)/C=N\c1ccnc(=O)[nH]1`: over 100 µM.
On the same count and under the same terms, the same measure for `O=S(=O)(c1ccc(-c2nnc(-c3ccc(F)cc3)o2)cc1)c1ccc(-c2nnc(-c3ccc(F)cc3)o2)cc1`: over 100 µM; for `COc1ccc(C2OCCN2C)cc1` (stereo not drawn): over 100 µM; for `Cc1cc(C)nc(/C(=N\NC(N)=O)C(=O)Nc2nc3ccc(C)cc3s2)c1`: over 100 µM.
For `O=C(O)/C=C\C(=O)Nc1ccccn1`, the TGI is over 100 µM.
Still for that read-out and setting: the same measure for `O=[N+]([O-])c1nccn1CC(O)CN1CCCCC1` (stereo not drawn): over 100 µM.
Take `CCN1CCN(c2cc(C)nc(N(CCCNc3ccnc4cc(Cl)ccc34)Cc3ccc4c(c3)OCO4)n2)CC1`: the GI50 was 3.57 µM and the TGI worked out at 37.9 µM.
`CC(=O)OC1C2CCC3C(C)(O)C4CC(O)C(C)(C)C4(O)C(O)CC13CC2(C)O` (stereo not drawn) registered a TGI of over 100 µM.
For `NNc1cnn(-c2ccccc2)c(=O)c1Cl`, the TGI was over 100 µM.
On to `O=C(/C=C/c1ccc(O)c(O)c1)NCc1c[nH]c2ccccc12`, for which the GI50 is 51.7 µM and the TGI is over 100 µM.
The like results for `CC1CN(S(=O)(=O)c2oc(-c3ccc(Cl)cc3)nc2C#N)CC(C)O1` (stereo not drawn) were, in that order, 17.3 µM and 31.8 µM.
Consider `Cl/C(N=Nc1ccccc1)=N/Nc1ccccc1`, for which the TGI is over 100 µM.
`COC(=O)c1c(C)cccc1C1CN=NC12Cc1ccc(C)c(C)c1C2=O` (stereo not drawn) had a TGI of over 100 µM.
For `COc1ccc(/C=C/C(=O)c2ccc(-n3cc(CN4CCN(c5cc6c(cc5F)c(=O)c(C(=O)O)cn6C5CC5)CC4)nn3)cc2)cc1OC`, the GI50 is 3.58 µM and the TGI was over 100 µM.
The like results for `Oc1c(Cl)cc(Cl)c2ccc(Cn3cc(-c4cc(C(F)(F)F)cc(C(F)(F)F)c4)nn3)nc12` were, in that order, 13.8 µM and 26.8 µM.
In the same order, the values of `Cc1cc(Nc2nc(C(=O)Nc3ccccc3)nc3ccccc23)n[nH]1` are 11.2 µM and over 25 µM.
Consider `CCOc1ccc2c(c1)C(=O)c1c-2n(CCCBr)c(=O)c2cc([N+](=O)[O-])ccc12`, for which the GI50 is 44 µM and the TGI is over 100 µM.
In turn, `COc1ccc(OC(C(=O)O)C(C)C)c2c1CCCC2=O` (stereo not drawn) gave a TGI of over 100 µM.
